From the supplement of paper PMC3334620
Over roughly 33,000 sequences, “E-score (-0.5 to 0.5)” has its median near -0.04; the highest 2% begin near 0.36. The list shows a part of the results.

Each sequence was assayed against T1, Hmlalpha2 (UniProt P0CY09) (assay: PBM E-score (8-mer binding enrichment) (E-score (-0.5 to 0.5)); higher = stronger / more preferred TF binding; most listed sequences are background and not binding sites). Conditions: protein concentration: 200 nM; construct: GST-full length.
T1 sequence: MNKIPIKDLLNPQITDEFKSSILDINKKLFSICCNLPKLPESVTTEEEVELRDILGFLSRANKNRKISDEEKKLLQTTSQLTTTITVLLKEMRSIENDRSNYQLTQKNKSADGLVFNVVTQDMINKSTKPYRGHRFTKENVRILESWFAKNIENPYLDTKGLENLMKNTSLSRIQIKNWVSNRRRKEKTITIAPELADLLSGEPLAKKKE
Description: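 Universal 'all 10-mer' protein binding microarrays (Agilent AMADID 015681) probed with GST-tagged S. cerevisiae TFs (full-length or DBD) made by in vitro transcription/translation (PURExpress), about 100-200 nM. Bound TF was detected with fluorescent anti-GST. Each ungapped 8-mer (which stands for itself and its reverse complement) is scored by the PBM enrichment score (E-score), a modified Wilcoxon-Mann-Whitney statistic from -0.5 to +0.5, computed with the Universal PBM Analysis Suite. Scale: above 0.35 generally sequence-specific binding.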

| Sequence | PBM E-score |
| --- | --- |
| ACTTGCTC | -0.136 |
| CATTCACA | 0.165 |
| ACCATAAT | -0.0158 |
| ACCGACGT | -0.0135 |
| GCACGTTA | 0.265 |
| ATCTACTG | 0.0942 |
| CACAGTGA | 0.00389 |
| AACGGTTC | -0.139 |
| CATGTGGG | -0.0335 |
| AAAGACAA | 0.229 |
| ACCTGTTC | 0.177 |
| GTAATAAA | 0.35 |
| AGCACAAT | 0.0685 |
| ACACCATC | 0.0914 |
| CCGGCAAA | -0.015 |
| GTCAGTTA | -0.0473 |
| CAACTTCC | 0.0425 |
| ACCTAGTG | 0.0188 |
| CACAGCTC | -0.016 |
| AGAGACTA | -0.0734 |
| GGCACGAC | 0.0237 |
| AAGATTGG | -0.0247 |
| AAATTCTG | 0.0112 |
| CGTCGTAA | 0.0838 |
| AATGGGTC | -0.273 |

| Sequence | PBM E-score |
| --- | --- |
| CACAGATC | -0.0314 |
| CCGATCCC | -0.343 |
| AGTTTGCA | -0.0729 |
| GCGCCATA | -0.0992 |
| AAATGCAG | -0.012 |
| TCAGGGAA | -0.158 |
| TCTTGCCA | -0.0766 |
| CCTATTAG | -0.0352 |
| CCCCATAA | -0.137 |
| CGCTGGCA | -0.0288 |
| AGGGATTC | -0.208 |
| CAGCATCG | -0.153 |
| CCATATGC | -0.104 |
| GCAGGACC | -0.366 |
| CCCATTCG | -0.0725 |
| GCCGGAGC | -0.276 |
| GTTTCCGA | -0.106 |
| CCACTATA | -0.0153 |
| GAAATGAC | 0.0702 |
| AATATGCG | 0.0558 |
| AAGCCCTG | 0.0331 |
| AATTTTGC | 0.0899 |
| AGAATGCC | -0.189 |
| TAGAAATA | 0.172 |
| TGGTCGAA | -0.163 |

| Sequence | PBM E-score |
| --- | --- |
| AGTGAACA | 0.154 |
| CGCTTTAG | -0.167 |
| GTTGTTGA | 0.259 |
| GATTTGTA | 0.186 |
| ACCTGTCC | -0.317 |
| CTGGCCAC | -0.134 |
| GATCTATA | 0.144 |
| CAAACCCG | -0.0693 |
| AGTTAGCC | -0.136 |
| ACGGATAG | -0.0714 |
| GGAACTGA | -0.163 |
| CAGCGTCG | 0.0498 |
| ACGGCCGA | 0.0121 |
| GACTAATA | 0.104 |
| CGCTTCTC | -0.23 |
| CCAGAGCC | -0.185 |
| ATGTAAGG | 0.313 |
| ACCGTGAG | -0.152 |
| CTAGATCA | -0.0964 |
| TTAAGGAA | -0.0151 |
| ACACGAAG | 0.358 |
| AGGAAAGG | -0.238 |
| CGTTCAAC | 0.23 |
| CTTGCTGC | -0.105 |
| GATGCAAC | -0.0922 |

| Sequence | PBM E-score |
| --- | --- |
| AACTCGAA | 0.0198 |
| AGCTCATC | -0.322 |
| GACGGGCA | -0.113 |
| CGCAGTAC | -0.0774 |
| TCGCCTAA | -0.0805 |
| CCTAACAG | -0.00251 |
| ACGTTATG | 0.268 |
| GCTTATTA | 0.211 |
| CATGGCTA | 0.0496 |
| GGACAGAA | -0.0416 |
| GATTCCGA | -0.282 |
| AAACTAGT | 0.062 |
| CGCTCTTC | -0.315 |
| AAAGATTA | 0.156 |
| ATGAGCGC | -0.141 |
| ATACGAGG | -0.121 |
| AGCCGCGA | -0.289 |
| GGACGATA | -0.141 |
| CGTCGCGC | -0.238 |
| CATCCCGC | -0.167 |
| ACTCGCCG | -0.0204 |
| GTACACCA | 0.089 |
| CAGACTCA | -0.0714 |
| GACCCGCC | 0.0617 |
| AATCAGGA | -0.182 |

| Sequence | PBM E-score |
| --- | --- |
| AGCGTAGA | -0.119 |
| AGCTGCCC | -0.0944 |
| ATAAGTGA | -0.0374 |
| GCCAATAC | 0.114 |
| ATCACATG | 0.306 |
| ACAACGGA | 0.172 |
| CCCCTCGG | -0.158 |
| AGATGGCT | -0.206 |
| AAGCTCAC | 0.00292 |
| ACCACGAC | -0.0364 |
| ATTCATTG | 0.0908 |
| GCTTGCGA | 0.0419 |
| CTGATCCC | -0.259 |
| CTACATAG | 0.406 |
| ACATGGTG | 0.414 |
| AAGAGCAT | 0.114 |
| CTCGAGGA | -0.0547 |
| ACGGGACC | -0.0882 |
| ATGGCAAG | -0.153 |
| AGTATCAG | -0.0806 |
| CCCGAACG | -0.193 |
| CAAAATGG | -0.166 |
| AGCGCTTC | -0.0987 |
| ACCCGGGT | -0.278 |
| CACTTGGG | -0.131 |

| Sequence | PBM E-score |
| --- | --- |
| TAACGGAA | 0.0633 |
| CCCCCTTC | -0.428 |
| CGTTACGC | 0.204 |
| TGCCACAA | 0.036 |
| CAACATTC | 0.036 |
| CTAAAAGC | -0.293 |
| AAATGTTC | 0.064 |
| AACCCATG | 0.154 |
| ATTCCGCA | -0.0371 |
| CTTTGAGA | 0.115 |
| ATACAAGG | 0.295 |
| AAACGCCC | -0.192 |
| ATGCATCA | 0.191 |
| CACAACTC | 0.0225 |
| CAAACAAG | 0.0478 |
| GCATCTCA | -0.0376 |
| CTTTATCA | 0.0563 |
| GCAGCGCA | -0.137 |
| ACAGCATA | 0.0944 |
| AGTTTACC | 0.075 |
| ACCGGCAA | -0.114 |
| CAGATGAA | 0.0555 |
| AACAGCCG | -0.0483 |
| GACGACAC | 0.0469 |
| CAAAGATC | 0.166 |

| Sequence | PBM E-score |
| --- | --- |
| AATGTCAG | 0.0789 |
| ACTCTCTA | -0.132 |
| GCCGACGC | -0.106 |
| CAAAGGGG | -0.115 |
| AGATTCAG | -0.0179 |
| CCTAGGCC | -0.269 |
| CGGAGTGA | -0.017 |
| AGCCAGCG | -0.231 |
| ACTCTCCT | -0.223 |
| GCAGCGAA | 0.11 |
| ATTCTAGG | 0.137 |
| CTACAGAC | 0.024 |
| AGGAACAG | -0.102 |
| ATCATCTA | -0.143 |
| ACCCAGCA | 0.0344 |
| ATCCTAAT | -0.0163 |
| CACCCAGA | -0.106 |
| CCTTGTTC | -0.0497 |
| ATAGTGAC | -0.0497 |
| CATTGGCG | -0.0178 |
| ATGACGTA | 0.258 |
| ATGGTTGC | -0.21 |
